According to the supplement of paper PMC11417369:
Some of the results follow.

System: PfSIP2 AP2 domain 1 (GST-tagged)
Assay: gcPBM binding intensity (ln(normalized median fluorescence intensity)); higher = stronger DNA binding
In short: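 Binding of GST-tagged P. falciparum DNA-binding domains, expressed in E. coli and used at about 25 μg on average, was carried out for 1 h in 1× PBS containing 1% milk, 0.2 mg/ml BSA, 0.5% salmon testes DNA and 0.03% Triton X-100. The target was an Agilent 4 × 180k array of primer-extended double-stranded 36-bp intergenic genomic probes plus negative controls, read with Alexa488 anti-GST antibody at 488 nm. Binding intensity is the highest Masliner-normalised natural-log median intensity across replicate spots of either probe orientation.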

Sequence | gcPBM binding intensity (ln)
ATATAAGATTTAAGAAGTACAATTATACAGTAGATC [XGTACX_site7501] | 7.18
ACGTTTTATAATTAATGTACAAATATTAAAATTGCA [XGTACX_site7869] | 7.11
GAATAAATTAAAAATGCACACTTTGATGGGTACATT [CACACA_site5220] | 7.11
TATATTTGCAGTAATAATAATTATTATAAAAGATAA [XGTACX_negctrl_site547] | 7.04
TTATTTATTTTAAATTCACACATCGTGCTATTATAT [CACACA_site5003] | 7.87
TCATATATTTATGTATGTACATATATATATAGATTA [XGTACX_site380] | 7
TATGAATGGTTAAGTACACACATATTAAGATATGTA [CACACA_site5852] | 6.99
TTTTTATAACGTAATAAATAAAACGTCTATACTATA [XGTACX_negctrl_site176] | 6.77
AAAAATATAATATAATGTACACAAAAAAAAAAATTC [XGTACX_site3657] | 7.25
AATTAGACATAATATACACACATATATTATAGATAT [CACACA_site7297] | 7.04
TATATTATTATAATTTGTACATATCTAATTATATAT [XGTACX_site5342] | 6.96
TAAAGATATTATTTTTGTACATATTGATATAATGAA [XGTACX_site6571] | 6.76
AATGATAATATTTCCTTCTTTTTTACTTCTTTCTTT [CACACA_negctrl_site776] | 6.79
AAAATGGTTTATAAATGTACATATATTATATATAAC [XGTACX_site7959] | 7.03
CCTATCCAGACATATACACACATATCTATTTATATA [CACACA_site5001] | 7.34
TATAAAAAATAATACACACACATGGCGACAAAATAA [CACACA_site2420] | 7.18
TTTACTTTCCCAAGTTGTACTGCTTCTAAGCTTTTT [XGTACX_site2708] | 6.84
CATATAAAATAATTCACACAAATATACAAATACCCA [CACACA_site5340] | 6.94
AAAAAAAATTTCTTCTGTACGCATAAATTTTTATTA [XGTACX_site8721] | 7.21

Sequence | gcPBM binding intensity (ln)
TATTTAATTTTTAAATGTACATATAAAATAATATAT [XGTACX_site2422] | 7.03
TTTTTCAGAAAAGAAACACACATATATATATTTATA [CACACA_site2372] | 6.98
CTCAAAGGAATATTCACACATAAATTATAGACTACA [CACACA_site6050] | 7.04
TAATTATATTCACTTGCTATATAAATTATATATATT [CACACA_negctrl_site526] | 6.94
ATACACACTCAAAAAAGTACTTAACTACATGAATTG [XGTACX_site6366] | 7.08
GTATATATATATATATGCAAATGTATAAATCTACAT [CACACA_negctrl_site546] | 7.35
AAGAAAAAAATATATGTTTATTTACTTTAATAATTT [TGCATGCA_negctrl_site168] | 6.7
TATATATAAATATGCTGTACGTTTTAATACGTTAAG [XGTACX_site2378] | 7.24
GATAAATTAAAACACACACACATATATATATATATA [CACACA_site3962] | 9.63
AAAAAAATAGTCTTCTTGCACTTTTTAATTTATTTT | 7.3
TTATAATAAAATGAATATATATAATTTAAAATATTT [CACACA_negctrl_site1651] | 6.83
AAAAAAAGTTATATTACACACTTTATTCGTTAACTT [CACACA_site3013] | 6.7
ATATTTATGAAGTTCACACATATATATATATATATA [CACACA_site5954] | 9.55
ACAACAATATTTGAATGTACTCTATTTTCGTTGTTC [XGTACX_site593] | 6.96
AAGGAAAACAATAGGTGTACCAAACGTCCTAGGAAC [XGTACX_site5732] | 6.7
TTTCTTCATTTTTTCACACATAAGAAAATATAATCA [CACACA_site4275] | 7.3
TAAAAAAATAAAATTACACACATATATAAATATATA [CACACA_site2620] | 6.75
AAAAAAGCAATATGATGTACATTTACTTTGTGAAAG [XGTACX_site4450] | 6.84
CTAGGTATGCTTTAAACATGCAAAAATACAAATTAC [TGCATGCA_site239] | 6.87

Sequence | gcPBM binding intensity (ln)
ATATATAAATATATTTGTACATATAATATGTATTAT [XGTACX_site8820] | 7.24
TTTTGTTATAATAAAGTGCATTTAGTCGGGTTACAA [GTGCAC_site9779] | 9.07
AAATATTATAAAAAGGTGCATTTTTATTATATGAGT | 11
AATTTAAAAAAAATCACACACAGAAAAAAAAAAAAA [CACACA_site2322] | 6.93
ATATATGTTTTTATATGTACTTATAATGTGTGTATA [XGTACX_site5165] | 7.47
TTCTGACCAATGCTATAAAATAATACAAAAGAAAAA [GTGCAC_negctrl_site3] | 7.25
TGAAGAGGAAACAAACAAAATGAATAATTAAAAAGG [CACACA_negctrl_site1601] | 7.28
TATATCCACATTTTTAGTACTTAAAAATAAATAAAC [XGTACX_site3826] | 7.37
TTATAATCAATGAATACACACATATATTTCATTAAT [CACACA_site5909] | 6.82
TAATAATAGAGACACACACACATAGACATATAAATA [CACACA_site6729] | 6.97
ATCTATGAAAAAGGTACATGCAATAAAGAAACATAT [TGCATGCA_site805] | 7.15
TTATACTATTTTTATACATGCATTTCTATATATTTT [TGCATGCA_site316] | 7.38
TTCAAAATAAAAAATTCACACACATATATATATATA [CACACA_site8653] | 9.18
ATTTATTAAATTTATAGTACTCAAAGATTTTTATTT [XGTACX_site6661] | 6.79
AAATAAAACAATTAACGTACAAGCATATATATATAT [XGTACX_site8508] | 9.4
TATGTATAATTATTTTGTACTTATTAAATTTTTTTT [XGTACX_site5413] | 6.67
TATATATATATTATATGTACACAAGGAAATATGCAT [XGTACX_site5637] | 8.78
AAATAAAAAAAAATAGCACACATAAATATATTATAT [CACACA_site8155] | 6.86
